In the antibiotic and cytotoxicity screens of Wong et al. (2023):
The other results are listed elsewhere or left out.

system: S. aureus RN4220; assay: growth inhibition call (relative growth <= 0.2); conditions: 50 µM

Growth inhibition call, inactive:
COc1ccccc1-c1ccc2c(c1)O[C@@H](CN(C)C(=O)c1ccncc1)[C@@H](C)CN([C@H](C)CO)S2(=O)=O, C[C@H]1CN([C@@H](C)CO)C(=O)c2cccc(NC(=O)c3nc4ccccc4s3)c2O[C@@H]1CN(C)Cc1ccc(Cl)c(Cl)c1, C[C@@H]1CN([C@H](C)CO)C(=O)c2cc(NS(=O)(=O)c3ccc(Cl)cc3)ccc2O[C@H]1CN(C)Cc1ccc(Cl)c(Cl)c1, COCCc1nnc(CCOC)n1N, CNC[C@H]1Oc2ccc(NC(=O)CCN3CCOCC3)cc2CC(=O)N([C@@H](C)CO)C[C@@H]1C, C[C@H](CO)N1C[C@H](C)[C@@H](CN(C)C(=O)Nc2ccc(C(F)(F)F)cc2)Oc2c(NC(=O)Nc3ccccc3)cccc2C1=O, C[C@H](CO)N1C[C@H](C)[C@H](CN(C)C(=O)Nc2ccccc2C(F)(F)F)OCc2ccccc2-c2ccccc2C1=O, C[C@@]1(C(=O)O)CCCC[C@@H]1N, C[C@@H]1CN([C@@H](C)CO)C(=O)c2cc(Br)cnc2O[C@H]1CN(C)C(=O)Nc1ccc2c(c1)OCO2, COc1ccccc1C#Cc1ccc2c(c1)O[C@@H](CN(C)Cc1cccnc1)[C@H](C)CN([C@@H](C)CO)S2(=O)=O, C/C=C/c1ccc2c(c1)O[C@H](CN(C)S(=O)(=O)c1ccccc1OC)[C@H](C)CN([C@H](C)CO)S2(=O)=O, C=CC(=O)NCCCCNC(=O)C=C, C[C@@](N)(C(=O)O)c1ccc(-c2nn[nH]n2)cc1, COc1ccc(S(=O)(=O)N(C)C[C@H]2Oc3cc(C#CC4CC4)ccc3S(=O)(=O)N([C@@H](C)CO)C[C@H]2C)cc1, C[C@@H]1CCCCO[C@H](CN(C)Cc2ccc(Cl)c(Cl)c2)[C@H](C)CN([C@@H](C)CO)C(=O)c2cc(NC(=O)Nc3ccc(C(F)(F)F)cc3)ccc2O1, O=c1cc(Oc2ccc(O)cc2)oc2cc(O[C@@H]3O[C@H](CO[C@@H]4O[C@H](CO)[C@@H](O)[C@H](O)[C@H]4O)[C@@H](O)[C@H](O)[C@H]3O)cc(O)c12, Cc1[nH]c(N)nc(=O)c1CC(=O)O, C[C@H](CO)N1C[C@H](C)[C@@H](CN(C)S(=O)(=O)c2ccc(F)cc2)OCCCC[C@H](C)Oc2ccc(NC(=O)c3ccccc3)cc2C1=O, C[C@H]1CN([C@@H](C)CO)C(=O)Cc2cc(NS(=O)(=O)c3cn(C)cn3)ccc2O[C@H]1CN(C)S(=O)(=O)c1cccs1, COCCNC(=O)C[C@H]1CC[C@@H]2[C@H](COC[C@@H](O)CN2C(=O)Nc2ccc3c(c2)OCO3)O1, COc1ccc(-c2cnc3c(c2)C(=O)N([C@H](C)CO)C[C@@H](C)[C@H](CN(C)C(=O)Cc2ccncc2)O3)cc1, CC(O)(CN)CCc1ccccc1 (stereo not given), C[C@@H]1CN([C@H](C)CO)C(=O)c2cc(NC(=O)Nc3ccc(C(F)(F)F)cc3)ccc2O[C@@H]1CN(C)Cc1ccc(Oc2ccccc2)cc1, CCc1nc2c(C)cc(N3CCN(CC(=O)N4CC(O)C4)CC3)cn2c1N(C)c1nc(-c2ccc(F)cc2)c(C#N)s1, CC(=O)N1CCN(C(=O)Cc2ccc(S(C)(=O)=O)cc2)C[C@@H](O)C1, O=C(C[C@H]1C=C[C@H](NC(=O)CN2CCOCC2)[C@H](CO)O1)NCCc1ccncc1, Cc1ccc(S(=O)(=O)N(C)C[C@@H]2Oc3ccc(NS(=O)(=O)c4cn(C)cn4)cc3CC(=O)N([C@H](C)CO)C[C@@H]2C)cc1, C[C@H]1CCCCO[C@H](CN(C)S(=O)(=O)c2ccc(Cl)cc2)[C@@H](C)CN([C@@H](C)CO)C(=O)c2cc(NC(=O)Nc3cccc4ccccc34)ccc2O1, COCCOC(=O)N1C(=O)[C@@]2(c3cc(C#Cc4ccc(OC)cc4)ccc31)[C@H](c1ccc(O)cc1)N1[C@H](c3ccccc3)[C@H](c3ccccc3)OC(=O)[C@H]1[C@@H]2C(=O)N1CCCCCCC1, O=c1c(-c2ccc(O)cc2)coc2c(C3OC(CO)C(O)C(O)C3O)c(O)ccc12 (stereo not given), O=C(C[C@H]1C[C@H]2c3cc(NS(=O)(=O)c4ccc(F)cc4)ccc3O[C@H]2[C@H](CO)O1)N1CCOCC1, Cc1ccc(S(=O)(=O)N(C)C[C@@H]2OCCCC[C@@H](C)Oc3ccc(NC(=O)Nc4c(C)noc4C)cc3C(=O)N([C@H](C)CO)C[C@H]2C)cc1, C[C@@H]1CN([C@H](C)CO)C(=O)c2cc(NC(=O)Cc3ccccc3)ccc2O[C@@H](C)CCCCO[C@@H]1CN(C)Cc1ccncc1, CCNC(=O)C[C@H]1CC[C@@H](NC(=O)C2CCOCC2)[C@H](CO)O1, C=C(C)CC1(N[C@H](C)c2ccccc2)CCCCC1, C[C@@H]1CN([C@@H](C)CO)C(=O)Cc2cc(NC(=O)Nc3ccc4c(c3)OCO4)ccc2O[C@H]1CN(C)Cc1ccc(C(=O)Nc2ccccc2N)cc1, CN(C)C(=O)c1ccc(-c2cccc(-c3nc(C(=O)NC4CCCCC4)cc4c3[C@H](CCO)N([S@@](=O)C(C)(C)C)C4)c2)cc1, C[C@@H]1CN([C@@H](C)CO)C(=O)Cc2cc(NS(=O)(=O)c3ccc(F)cc3)ccc2O[C@@H]1CN(C)Cc1ccc(Cl)c(Cl)c1, NNC(=O)[C@@H]1C(c2ccccc2)[C@H]1C(=O)NN (stereo not given in full), C/C=C/c1ccc2c(c1)O[C@H](CN(C)S(=O)(=O)c1ccccc1OC)[C@H](C)CN([C@@H](C)CO)S2(=O)=O
